According to PubChem BioAssay AID588855 (National Center for Advancing Translational Sciences (NCATS), 2011):
Where “and” joins values, the source holds several entries; their conditions need not be identical. Equal entries are not always repeated. In all, about 410,000 compounds went through this assay and about 5,000 (1.2%) were called active. Inconclusive means that the source gave no clear call. Such entries were picked first, then a sample of the others. The call rests on the fitted dose curve; in most records, active means well fitted inhibition curve with a large enough effect; inconclusive means small, poorly fitted or top-dose-only effect; inactive means no such curve, though single readings can be large or run the other way. Where the call is inconclusive, the potency comes from a doubtful curve fit.

Experiment: qHTS for Inhibitors of TGF-b; further: nearly all actives have a fitted effect of over 65% in size
Conditions: HepG2 CAGA-GFP TGF-b/SMAD3 reporter, GFP fluorescence, 18 h, TGF-beta stimulated, 500 pg/mL final; series mostly up to 46.1 µM; activity, negative = inhibition: at the top concentration
Summary of the method: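 HEPG2 CAGA-GFP, 1000 cells/well; 2 h settle, 37 C; cpd via pin tool; TGF-b 500 pg/mL final; 18 h, 37 C; GFP imaging ex488/em500-530; %Activity normalised to -TGF-b and +DMSO controls; CRC fit, curve class.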
On the % scale 0 is the no-effect control and ±100 the full control effect; potency means the concentration at half of the fitted maximal effect; tags describe the fitted curve by direction and shape.

Row | SMILES | Potency | activity, negative = inhibition
1 | C#CCOCCOCCOCCNc1nc(N2CCN(C(=O)CCCCCCCCCCNC(=O)[C@H](CCCCN)n3cc(C)nn3)CC2)nc(N2CCN(C(=O)CCCCCCCCCCNC(=O)[C@H](CCCCN)n3cc(CCCC(=O)O)nn3)CC2)n1 | inconclusive: 2 µM [inhibitor, partial curve] | 
2 | CC(C)/C=N/NC(=O)c1ccc(Cl)cc1 | inconclusive: 17.8 µM [inhibitor, single point] | 
3 | COCCCNC(=O)c1ccc(C)c(-n2c(C)nc3cccnc32)c1 | inconclusive: 1.41 µM [inhibitor, partial curve, poor fit] | 
4 | Cc1nc2ccn(Cc3cccnc3)c(=O)c2cc1C(=O)Nc1ccc(F)cc1F | inconclusive: 5.01 µM [inhibitor, partial curve, poor fit] | 
5 | COC(=O)c1[nH]c2ccc(F)cc2c1NS(=O)(=O)c1ccc(OC)cc1 | inconclusive: 28.2 µM [inhibitor, single point] | 
6 | O=S(=O)(Nc1ccc(F)cc1F)c1ccc(-n2cccn2)cc1 |  | inactive: 0%
7 | Cc1cccc(N2CCN(C(=O)C3CCN(c4ncnc5c4nc4n5CCCCC4)CC3)CC2)c1C | inconclusive: 3.16 µM [inhibitor, single point] and inconclusive: 6.31 µM [inhibitor, partial curve] | 
8 | CSCCC(NC(=O)/C(=C/c1ccco1)NC(=O)c1ccco1)C(=O)O (stereo unspecified) |  | inactive: 10.4%
9 | COc1c(C(=O)Nc2ccccc2N2CCOCC2)cc2ccccc2c1Br | inconclusive: 5.62 µM [inhibitor, single point] | 
10 | COc1cc(C)ccc1OCc1cc(C(=O)N2C[C@H]3CC[C@H]2C3)no1 |  | inactive: 0.716%
11 | CCN1C(=O)CC(N2CCN(c3ccc(C(=O)c4ccccc4)cc3)CC2)C1=O (stereo unspecified) |  | inactive: -23%
12 | COc1ccc(NC(=O)c2ccc(S(=O)(=O)N3CCCCC3)cc2)c(OC)c1 | inconclusive: 17.8 µM [inhibitor, single point] | 
13 | Cc1ccccc1-c1noc(CNC(=O)c2ccco2)n1 |  | inactive: -27.6%
14 | CCN1CCN(C(=O)/C=C/c2cccc(Cl)c2)CC1 |  | inactive: 1.04%
15 | O=C(OCC(=O)N1CCN(C(=O)c2ccco2)CC1)c1ccccc1NCCO |  | inactive: -22.9%
16 | O=C(Nc1nnc(SCC(=O)N2CCCc3ccccc32)s1)c1ccccc1 |  | inactive: -6.25%
17 | COc1ccc(NC(=O)N(C)C[C@H]2Oc3ccc(NC(=O)Nc4ccc5c(c4)OCO5)cc3C(=O)N([C@H](C)CO)C[C@@H]2C)cc1 |  | inactive: -12.8%
18 | CC1=Nc2cc(C(=O)NCCN3CCOCC3)ccc2Sc2c(C)ccc(C)c21 | active: 15.8 µM | 
19 | Cc1cc(NC(=O)NC(=O)c2ccccc2NC(=O)CN(C)C)ccc1Oc1ncc(Br)cn1 | inconclusive: 0.794 µM [inhibitor, full curve, poor fit] | 
20 | O=C(/C=C/c1ccccc1)Nc1cccc(C(=O)N2CCCCC2)c1 | inconclusive: 17.8 µM [inhibitor, partial curve, poor fit] | 
21 | C#CCOc1ccc(/C=C2\SC(=S)N(Cc3cccnc3)C2=O)cc1 | inconclusive: 5.01 µM [inhibitor, full curve] | 

Row | SMILES | Potency | activity, negative = inhibition
22 | CCOc1ccc(NC(=O)CCCN2C(=S)NC(C)(C)CC2C)cc1 (stereo unspecified) |  | inactive: -0.493%
23 | COc1ccc(CN2C(=O)C(CC(=O)NC(c3ccccc3)c3ccccc3)CC(C(=O)N(C(C)C)C(C)C)=C2C)cc1 (stereo unspecified) | inconclusive: 25.1 µM [inhibitor, single point] | 
24 | CCc1cc2c(COC(=O)CCNS(=O)(=O)c3cccc(C(F)(F)F)c3)cc(=O)oc2cc1O | inconclusive: 22.4 µM [inhibitor, single point] | 
25 | Cn1c(N)c(C(=O)COC(=O)Cc2cccs2)c(=O)n(C)c1=O | inconclusive: 6.31 µM [inhibitor, single point] | 
26 | O=C(Nc1cc(Cl)ccc1O)c1cc(-c2ccco2)on1 | inconclusive: 35.5 µM [inhibitor, single point] | 
27 | COc1ccc(NC(=O)N(C)C[C@H]2OCc3cn(nn3)CCCC(=O)N([C@@H](C)CO)C[C@@H]2C)cc1 |  | inactive: 22.3%
28 | Cc1ccc(NC(=O)c2ncn(CCCNCC(C)c3ccccc3)n2)cc1C (stereo unspecified) | inconclusive: 11.2 µM [inhibitor, single point] | 
29 | Cc1nn2c(=O)cc(COC(=O)COc3ccc(F)cc3)nc2s1 | inconclusive: 0.794 µM [inhibitor, full curve] | 
30 | Cc1nc(SCc2nc3ccc(C(F)(F)F)cc3[nH]2)c2oc3ccccc3c2n1 | inconclusive: 17.8 µM [inhibitor, partial curve, poor fit] | 
31 | Cc1cccc(NC(=O)C2CCCN(S(=O)(=O)c3ccc(Br)s3)C2)c1 (stereo unspecified) | inconclusive: 11.2 µM [inhibitor, partial curve, poor fit] | 
32 | COc1ccc(C(=O)N2CC3(CC(c4cccc(NC(=O)COc5ccc(Cl)cc5)c4)=NO3)C[C@@H]2C(N)=O)cc1 (stereo partly specified) | inconclusive: 35.5 µM [inhibitor, single point] | 
33 | CC1Sc2ccc(S(=O)(=O)N3CCC(C(=O)N(C)Cc4ccccc4)CC3)cc2NC1=O (stereo unspecified) | inconclusive: 12.6 µM [inhibitor, single point] | 
34 | COC(=O)c1c(NC(=S)NN2CCN(C)CC2)sc2c1CCC(C)C2 (stereo unspecified) | inconclusive: 15.8 µM [inhibitor, single point] | 
35 | O=C(NCCc1ccccc1)c1ccc2c(c1)N(Cc1ccccc1)C(=O)CS2=O (stereo unspecified) |  | inactive: -15.1%
36 | NC(=O)NC(=O)C(c1ccccc1)N1CCN(S(=O)(=O)Cc2ccccc2)CC1 (stereo unspecified) |  | inactive: -11.4%
37 | CCOC(=O)c1sc2nc(SCC(=O)N(CC)CC)n(CCCN3CCCC3=O)c(=O)c2c1C |  | inactive: -13.5%
38 | Cc1ccc(C2=NC(c3ccccc3)=Nc3ccc(Cl)cc3N2)cc1 |  | inactive: 11.3%
39 | COc1cccc(CNC(=O)c2nnn(-c3ccc(OC(F)(F)F)cc3)c2N)c1 | inconclusive: 35.5 µM [inhibitor, single point] | 
40 | COc1cnc(-c2cccc(C(F)(F)F)c2)c(NC(=O)c2cc3ccccc3s2)n1 | inconclusive: 35.5 µM [inhibitor, single point] | 
41 | C[C@@]12C(=O)N(Cc3ccc(F)cc3)CC(=O)N1[C@H]1c3cc(Cl)ccc3OC[C@@H]1[C@@H]2c1ccccc1 | inconclusive: 0.112 µM [inhibitor, full curve, poor fit] | 
